Biological target: the molecule itself
Assay: EGS chemical cross-linking on KU-812 cells, SDS-PAGE and Western blot (about 100 kDa monomer, about 200 kDa dimer)

B1: 161P2F10B variant 1 (human 161P2F10B), on the cell surface (enzyme)
chain: not shown
notes: Cell surface pyrophosphatase/phosphodiesterase; also called 161P2F10B v.1; CD203c
**Q.** Does B1 bind?
**A.** Result: binds

From patent publication US20090022663A1 (published 2009)
